# Results: PubChem BioAssay AID1460 (National Center for Advancing Translational Sciences (NCATS), 2008)
# Where “and” joins values, the source holds several entries; their conditions need not be identical. Identical values can stand only once. Hit rate of the full screen: of about 270,000 compounds, about 5,800 (2.1%) were called active. Inconclusive results, whose numbers are uncertain, are shown with a selection of clear calls. The call rests on the fitted dose curve; in most records, active means well fitted inhibition curve with a large enough effect; inconclusive means small, poorly fitted or top-dose-only effect; inactive means flat fitted curve, though single readings scatter. Potencies of inconclusive entries are doubtful fits and often do not repeat.
# Target: Microtubule-associated protein tau (Homo sapiens) (UniProt P10636)
# Test: qHTS for Inhibitors of Tau Fibril Formation, Thioflavin T Binding; further: nearly all actives have a fitted effect of over 55% in size
# Details: recombinant tau K18 P301L (four-repeat tau fragment), heparin-induced fibrillization, ThT fluorescence; series mostly up to 57.4 µM; activity, negative = inhibition: at the top concentration
# Summary of the method: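 In this qHTS, human K18 P301L tau is incubated with compound and heparin for 6 hr at 37 C, and Thioflavin T fluorescence then reports fibril load.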
# On the % scale 0 is the no-effect control and ±100 the full control effect; potency means the concentration at half of the fitted maximal effect; tags describe the fitted curve by direction and shape.
# UniProt P10636, sequence (P10636 whole entry, looked up): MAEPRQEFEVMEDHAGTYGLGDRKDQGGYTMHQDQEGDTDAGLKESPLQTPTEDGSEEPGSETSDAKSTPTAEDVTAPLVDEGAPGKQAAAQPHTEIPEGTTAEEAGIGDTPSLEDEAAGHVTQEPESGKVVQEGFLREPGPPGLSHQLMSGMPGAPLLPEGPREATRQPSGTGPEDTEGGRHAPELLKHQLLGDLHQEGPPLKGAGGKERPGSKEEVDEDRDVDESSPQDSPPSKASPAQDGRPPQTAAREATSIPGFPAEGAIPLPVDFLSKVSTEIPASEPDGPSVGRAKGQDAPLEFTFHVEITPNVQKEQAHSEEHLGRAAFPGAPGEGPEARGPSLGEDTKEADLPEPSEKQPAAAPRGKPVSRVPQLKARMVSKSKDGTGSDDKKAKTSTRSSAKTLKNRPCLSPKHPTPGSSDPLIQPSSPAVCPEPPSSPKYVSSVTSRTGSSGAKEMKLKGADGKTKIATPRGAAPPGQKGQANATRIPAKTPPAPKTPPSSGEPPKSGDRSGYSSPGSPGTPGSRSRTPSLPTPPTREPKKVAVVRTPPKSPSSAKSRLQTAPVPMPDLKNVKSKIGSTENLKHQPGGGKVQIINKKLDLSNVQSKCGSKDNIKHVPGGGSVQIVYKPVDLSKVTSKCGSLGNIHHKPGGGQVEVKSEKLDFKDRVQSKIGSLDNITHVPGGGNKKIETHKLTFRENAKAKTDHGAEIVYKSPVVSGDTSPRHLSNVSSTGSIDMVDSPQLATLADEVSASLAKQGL
Structure (SMILES),Potency,"activity, negative = inhibition"
COc1c(O)c(O)cc2c1oc1c3cc(C)ccc3oc(=O)c21,active: 8.91 µM,
CC(=O)N1CCN(c2ccc(NC(=O)c3ccc4c(c3)OCCO4)cc2)CC1,"inconclusive: 4.47 µM [inhibitor, partial curve]",
CCCCC#CC1C=CC(Oc2cc(OC)c(OC)c(OC)c2)C(COC(=O)OCC)O1 (stereo unspecified),,inactive: -14% [at 11.5 µM]
CCCc1nc2ccccc2n1CC(O)COc1ccc(NC(C)=O)cc1 (stereo unspecified),"inconclusive: 12.6 µM [inhibitor, partial curve]",
COc1cccc(CNC(=O)CCCn2nc(C)c3sc4ccccc4c3c2=O)c1,,inactive: -7.42%
COc1ccc(N(C)S(=O)(=O)c2cccc(C(=O)OCC(=O)Nc3sc4c(c3C#N)CCCCC4)c2)cc1,,inactive: -3.01%
Cc1ccc(-c2nc(-c3ccccn3)no2)cc1[N+](=O)[O-],"inconclusive: 15.8 µM [inhibitor, partial curve]",
CN1N=C(C(=O)N2CCN(c3ccc([N+](=O)[O-])cc3)CC2)CCC1=O,"inconclusive: 31.6 µM [inhibitor, partial curve, poor fit]",
[O-]/[N+](=C\c1ccncc1)c1ccc(Br)cc1,active: 31.6 µM,
NC(=S)c1ccc[n+]([C@@H]2O[C@@H](COP(=O)([O-])OP(=O)(O)OC[C@H]3O[C@@H](n4cnc5c(N)ncnc54)[C@H](OP(=O)(O)O)[C@H]3O)C(O)C2O)c1 (stereo partly specified),,inactive: 8.36%
CCOC(=O)c1c(C)oc2nc(C)nc(N3CCN(c4cc(Cl)ccc4C)CC3)c12,"inconclusive: 39.8 µM [inhibitor, single point]",
COCCCN1C(=O)C(=O)/C(=C(/O)c2ccc(OC(C)C)c(C)c2)C1c1ccncc1 (stereo unspecified),,inactive: -10.4%
COCCNc1nc(-c2ccc(OC)cc2)c(-c2ccc(OC)cc2)s1,"inconclusive: 25.1 µM [inhibitor, single point]",
C(=N\Nc1nc2ccccc2[nH]1)/c1cccc2cccnc12,active: 4.47 µM,
Oc1c(Cl)cc(Cl)cc1/C=N/c1nccs1,"inconclusive: 14.1 µM [inhibitor, partial curve]",
COc1ccc(CC(=O)Nc2nc(-c3cccnc3)cs2)cc1,"inconclusive: 22.4 µM [inhibitor, partial curve, poor fit]",
CCOc1ccc2nc(SCc3ccc(OC)cc3)sc2c1,"inconclusive: 5.62 µM [inhibitor, full curve]",
N#CC(=C1CCCC1)c1nc(-c2ccc(Cl)cc2)cs1,"inconclusive: 15.8 µM [inhibitor, partial curve]",
CCOc1ccc(NC(=O)NCCN2CCN(c3cccc(C)c3C)CC2)cc1,"inconclusive: 11.2 µM [inhibitor, partial curve]",
N#Cc1nc(COc2ccccc2Cl)oc1NCCc1ccccc1,"inconclusive: 5.62 µM [inhibitor, partial curve, poor fit]",
CSCC[C@H](NC(=O)OC(C)(C)C)C(=O)N/N=C/c1cccc2cccnc12,"inconclusive: 5.01 µM [inhibitor, partial curve]",
CCc1cccc2nc3c(c([Si](CC)(CC)CC)c12)Cn1c-3cccc1=O,"inconclusive: 25.1 µM [inhibitor, partial curve]",

Structure (SMILES),Potency,"activity, negative = inhibition"
CCCOc1ccc([N+](=O)[O-])cc1C1NC(=S)NC(c2ccccc2)=C1C(=O)OCC (stereo unspecified),,inactive: -4.47%
FCCCOc1ccc(/C=N/OCc2ccc(Cl)cc2)cc1,"inconclusive: 11.2 µM [inhibitor, partial curve]",
Cc1ccc(NCC(=O)N/N=C/c2cc3ccccc3nc2Cl)cc1,active: 17.8 µM,
Cc1nc2cc(NC(=O)CSc3nc4c(C)cccc4cc3C#N)ccc2s1,,inactive: -13.9%
O=C(NN=C1CCCC1)c1ccccc1OCCOc1ccccc1,,inactive: -1.56%
CC(=O)c1ccc(OCCCC(=O)n2nnc3ccccc32)cc1,"inconclusive: 22.4 µM [inhibitor, single point]",
CCOC(=O)c1ccc(NC(=O)CSc2nc(-c3ccc(OC)cc3)cc(C(F)(F)F)c2C#N)cc1,"inconclusive: 44.7 µM [inhibitor, single point]",
COc1ccc(N2C(=O)CCC(C(=O)Nc3cccc(C)n3)C2c2ccc(OC)c(OC)c2)cc1 (stereo unspecified),,inactive: -15.4%
COc1ccc(Cn2nnnc2C(c2ccc(N(C)C)cc2)N2CCC(C(N)=O)CC2)cc1 (stereo unspecified),"inconclusive: 12.6 µM [inhibitor, partial curve]",
O=c1cc(-c2ccco2)nc(-c2cccs2)o1,,inactive: 11.5%
Cc1ccc(NC(=O)Nc2cccc(C)n2)cc1,"inconclusive: 7.94 µM [inhibitor, partial curve]",
CCOC(=O)CSC(=S)NC(=O)c1ccc(OC)cc1,"inconclusive: 39.8 µM [inhibitor, single point]",
CN1CCN(C(=S)c2ccc(-c3cc(Cl)ccc3Cl)o2)CC1,"inconclusive: 25.1 µM [inhibitor, partial curve]",
Nc1n[nH]c(C2CC2)c1N=Nc1ccc(Cl)cc1,active: 10 µM,
N#CCSc1nc2ccc(N3CCOCC3)cc2c(=O)n1CCc1ccccc1,"inconclusive: 25.1 µM [inhibitor, partial curve]",
COc1ccccc1Nc1nc(-c2ccc(F)cc2)c2c(n1)-c1ccccc1OC2,"inconclusive: 0.562 µM [inhibitor, partial curve, poor fit]",
CCOC(=O)C1=C(O)/C(=C/N(C)C)N=C1C,"inconclusive: 39.8 µM [inhibitor, single point]",
CC1(C)CC(=O)C(C(=O)CCCCC(=O)C2C(=O)CC(C)(C)CC2=O)C(=O)C1,"inconclusive: 14.1 µM [inhibitor, partial curve]",
CCNC(=S)N/N=C/c1cccc(OCc2c(F)cccc2Cl)c1,,inactive: 0.122%
CCC(=C(c1ccc(OC)cc1)c1ccc(OC)cc1)c1cn(CC(O)CN2CCN(C)CC2)c2ccccc12 (stereo unspecified),"inconclusive: 28.2 µM [inhibitor, partial curve]",
Cc1cc(/C=C\c2nc(O)c([N+](=O)[O-])c(=O)[nH]2)c(C)n1-c1ccccc1,"inconclusive: 14.1 µM [inhibitor, partial curve]",
CC(=O)/C(N=Nc1ccc2c(c1)OCCO2)=C(\C)O,active: 10 µM,

Structure (SMILES),Potency,"activity, negative = inhibition"
O=C(N/N=C/c1cc2cc3c(cc2nc1Cl)OCCO3)c1ccccc1O,"inconclusive: 4.47 µM [inhibitor, full curve]",
CC(C)=CCN1CCN(Cc2cnc(N3CCOCC3)s2)CC1CCO (stereo unspecified),"inconclusive: 7.94 µM [inhibitor, partial curve]",
COc1ccc(CCNC(=O)CCNS(=O)(=O)c2ccc3c(c2)CCN3C(C)=O)cc1OC,,inactive: 8.43%
Cc1ccc(C(C(=O)NCCc2ccccc2)N(C(=O)c2csnn2)C2CC2)o1 (stereo unspecified),"inconclusive: 28.2 µM [inhibitor, single point]",
Cc1cc(-n2c(C)cc(C(=O)CSc3nc(N)cc(=O)[nH]3)c2C)no1,,inactive: -15.6%
COc1ccc(/C=N/NC(=O)c2[nH]c(C)c(C(=O)N/N=C/c3ccc(OC)cc3)c2C)cc1,"inconclusive: 1.26 µM [inhibitor, full curve]",
COc1ccc(NC(=O)c2c(NCc3cccs3)sc3c2CCCC3)c(OC)c1,"inconclusive: 7.08 µM [inhibitor, partial curve]",
Cc1ccc2nc(NC(=S)NC(=O)c3cccs3)sc2c1,"inconclusive: 3.55 µM [inhibitor, full curve]",
COc1ccccc1N1CCN(C(=O)C(=O)N/N=C/c2cccc(O)c2)CC1,"inconclusive: 22.4 µM [inhibitor, partial curve, poor fit]",
Nc1nc2ncc(=O)[nH]c2c(=O)[nH]1,"inconclusive: 3.98 µM [inhibitor, full curve, poor fit]",
O=C(O)Cc1sc(-c2cccnc2)nc1-c1ccc(Br)cc1,"inconclusive: 10 µM [inhibitor, partial curve, poor fit]",
COc1ccc2[nH]c(C(=O)Nc3ccccc3Cl)cc2c1,"inconclusive: 3.16 µM [inhibitor, partial curve]",
Cc1ccc(NC(=O)c2cc(N3C(=O)C=CC3=O)ccc2N2CCOCC2)cc1,,inactive: -2.51%
Cc1ccc(Cl)cc1N1CCN(C(=O)C2CCN(S(=O)(=O)Cc3ccccc3)CC2)CC1,,inactive: 5.36%
O=C(/C=C/c1ccccc1)Oc1coc(CSc2ncccn2)cc1=O,"inconclusive: 31.6 µM [inhibitor, partial curve]",
CCCNC(=O)Cn1c(=O)/c(=C\c2ccc(-c3ccc([N+](=O)[O-])cc3)o2)s/c1=C\C(=O)C(C)(C)C,"inconclusive: 14.1 µM [inhibitor, partial curve]",
CC(=O)OCCCNc1cc(SCc2ccco2)c2nonc2c1[N+](=O)[O-],active: 7.94 µM,
Nc1n[nH]c(N)c1N=Nc1ccc(Cl)cc1,"inconclusive: 10 µM [inhibitor, partial curve]",
Cc1cc(N2CCN(c3ccccc3)CC2)nc(N)n1,"inconclusive: 17.8 µM [inhibitor, partial curve]",
COc1ccc2c(C=Nc3c(C)n(C)n(-c4ccccc4)c3=O)c(O)n(Cc3ccco3)c(=O)c2c1,"inconclusive: 15.8 µM [inhibitor, partial curve] and inconclusive: 7.94 µM [inhibitor, partial curve]",
Cc1ccc(N=Nc2ccc(O)c(/C=N\NC(=O)c3ccc(N)cc3)c2)cc1C,"inconclusive: 3.55 µM [inhibitor, partial curve]",
CCCCSc1nnc(-c2ccc(C)cc2)c2ccccc12,"inconclusive: 25.1 µM [inhibitor, single point]",
